Some of the results follow. Antibody binding of pooled human sera (four to six donors per pool; dilution not stated) to peptides of the Trypanosoma cruzi antigen TSSA on microarrays. Quantile-normalised fluorescence in arbitrary units, mean of duplicate arrays; higher = more binding. No active / inactive call. The uninfected pools are read here as the healthy donors of the same country. The strongest signals lie near the top of the scale (about 60,000).
Tested on: pooled sera of chronic Chagas disease patients, Argentina
Assay: antibody binding signal (normalised fluorescence) (arbitrary fluorescence units); higher = stronger serum antibody binding to peptide
Experimental: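 Microarray of 15-residue peptides over residues 30-55 of Trypanosoma cruzi TSSAII, each with 1 to 10 substitutions at naturally variable positions, probed with one serum pool per country.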

Which antibody binding signal does the source give for GTDNKPAAGGAPSQP here?
The antibody binding signal was 4130.

KDNKTATGEAPSPSG was tested. Which antibody binding signal did it give?
Its antibody binding signal is 16000.

With TDNKTATGGTPSQSG as the sequence, how does the antibody binding signal read?
Its antibody binding signal is 422.

With PPSGKEKKPAAGEAP as the sequence, how does the antibody binding signal read?
Its antibody binding signal is 1420.

How did the antibody binding signal turn out when KDKKAATGEAPSQPG was run?
Its antibody binding signal is 9700.

How did the antibody binding signal turn out when GKDKKTATGEAPSPS was run?
Its antibody binding signal is 4950.

Which antibody binding signal does the source give for PSGTENKAAAGEAPS here?
The antibody binding signal was 48900.

How did the antibody binding signal turn out when KDKKTAAGGTPSQSG was run?
The antibody binding signal was 276.

With GKDNKTATGGAPSPP as the sequence, how does the antibody binding signal read?
The antibody binding signal was 764.

For GTENKAAAGETPSPP, which antibody binding signal is on record?
Its antibody binding signal is 38700.

Which antibody binding signal does the source give for TDNKPAAGEAPSQPG here?
The antibody binding signal was 9560.

For DNKTAAGETPSPSGA, which antibody binding signal is on record?
The antibody binding signal was 333.

How did the antibody binding signal turn out when SGTEKKTAAGGTPSQ was run?
Its antibody binding signal is 1420.

Which antibody binding signal does the source give for TDNKPAAGGTPSQPG here?
Its antibody binding signal is 1040.

Which antibody binding signal does the source give for KDKKPATGGAPSQSG here?
Its antibody binding signal is 416.

For PPSGTENKTAAGGTP, which antibody binding signal is on record?
The antibody binding signal was 48000.

How did the antibody binding signal turn out when NKTAAGETPSQSGAS was run?
The antibody binding signal was 242.

Which antibody binding signal does the source give for GTENKTAAGGAPSPP here?
Its antibody binding signal is 34800.

For SGTDKKTATGGTPSP, which antibody binding signal is on record?
Its antibody binding signal is 1110.

With GKDKKPATGGAPSPP as the sequence, how does the antibody binding signal read?
The antibody binding signal was 565.

How did the antibody binding signal turn out when STPPSGTEKKPATGE was run?
The antibody binding signal was 44100.

Which antibody binding signal does the source give for STPPSGKEKKTAAGE here?
Its antibody binding signal is 15500.

Which antibody binding signal does the source give for GTDKKPATGGAPSQS here?
Its antibody binding signal is 1180.

Which antibody binding signal does the source give for GKEKKPATGGTPSPP here?
The antibody binding signal was 7370.

With GTDNKPATGGTPSPP as the sequence, how does the antibody binding signal read?
Its antibody binding signal is 1520.

Which antibody binding signal does the source give for SGKDNKAATGETPSP here?
The antibody binding signal was 2440.

With GKDKKPATGEAPSQP as the sequence, how does the antibody binding signal read?
The antibody binding signal was 40800.

How did the antibody binding signal turn out when SGKENKPAAGGAPSQ was run?
The antibody binding signal was 2840.

For GKENKAAAGGTPSQS, which antibody binding signal is on record?
Its antibody binding signal is 1660.

For ISTPPSGTENKPAAG, which antibody binding signal is on record?
Its antibody binding signal is 53900.

How did the antibody binding signal turn out when TEKKAAAGGTPSQPG was run?
Its antibody binding signal is 972.

SGKDNKAAAGEAPSP was tested. Which antibody binding signal did it give?
Its antibody binding signal is 1030.

With KDKKAATGGTPSPPG as the sequence, how does the antibody binding signal read?
The antibody binding signal was 341.

For SGTDKKTATGEAPSP, which antibody binding signal is on record?
The antibody binding signal was 12900.

Which antibody binding signal does the source give for KDNKTAAGEAPSQPG here?
Its antibody binding signal is 5540.

Which antibody binding signal does the source give for DNKPAAGGTPSQSGA here?
The antibody binding signal was 238.

With KENKPAAGETPSPSG as the sequence, how does the antibody binding signal read?
Its antibody binding signal is 276.

How did the antibody binding signal turn out when GKDKKTAAGEAPSPS was run?
Its antibody binding signal is 318.

How did the antibody binding signal turn out when SGKEKKAATGETPSP was run?
Its antibody binding signal is 3850.

For GKDKKPATGGAPSPS, which antibody binding signal is on record?
Its antibody binding signal is 868.
